The record followed here is paper PMC5515408.

Some of the results follow. At the low end of the ranking the order means little.

This test has as its system MYC (p64) + MAX (p21), in MYC:MAX. The test can be described thus: protein-binding microarray (anti-MAX antibody). The conditions noted are these: PBM: 15 mM Tris-HCl pH 7.5, 100 mM KCl, 0.075% NP40, 7.5 mM beta-mercaptoethanol, 375 ng/ul BSA, 8 ng/ul poly(dA-dT):(dA-dT), 550 ng complex, 60 min, room …; high values mean tight binding; double strand, one strand shown; sequences stand for … in CCGGC…TTAATAGCTAAGATTACTATATCGACG
For TCGCACGTGGTA, the binding signal (log2 normalized fluorescence) was determined as 0.665. For TGATCGTGCGTA the value was 0.142; for TGAGGTCACGTA, 0.191; for TGATCAACGGTA, 0.15.

In the case of TGACGTAACGTA, the binding signal (log2 normalized fluorescence) was determined as 0.0723.

For the sequence TGATTACGAGTA, the binding signal (log2 normalized fluorescence) came to 0.0125. Consider TGATGCGTCGTA, for which the binding signal (log2 normalized fluorescence) amounted to 0.187. The same measure for TGAAGGGAGGTA: 0.069; for TGAAAGCGCGTA: 0.165; for TGAGACGTGTTA: 0.394. For CATGCCCGAAAC the value was 0.366. For TGAAAGGATGTA the value was 0.21. Consider TAGCAGCCATGG, for which the binding signal (log2 normalized fluorescence) came out at 0.105. For TGACACCCTGTA the value was 0.323; for TGATATGCGGTA, 0.226. The same measure for TGAGTTCCTGTA: -0.0293; for TGAATGGTCGTA: -0.0893; for CGACACGTGATA: 0.927. As to TGATCCCCAGTA, the binding signal (log2 normalized fluorescence) is -0.00652. Take TGCATCGTGGTA: the binding signal (log2 normalized fluorescence) stood at 0.636. For TGATAACGGGTA the value was 0.0896; for TGAGACGTCGTA, 0.0945. For TGACACGTGGTT the value was 0.795. For TGATTCGGTGTA the value was -0.136; for TGATCGCCCGTA, -0.005. Take TGAGTAAACGTA: the binding signal (log2 normalized fluorescence) was -0.156. For TGACACGTCTGA the value was 0.468; for TGACGCATAGTA, 0.204; for TGACACCGGGTA, 0.135. For the sequence TGGCACGAGGTT, the binding signal (log2 normalized fluorescence) was found to be 0.697. The same measure for TGTCATGTAGTA: 0.231. For the sequence TGAGCGCAAGTA, the binding signal (log2 normalized fluorescence) is 0.175. As for TGACTGCGAGTA, the binding signal (log2 normalized fluorescence) was determined as 0.161. In the case of TGATGGGTAGTA, the binding signal (log2 normalized fluorescence) was -0.0659. As for TGAATGTGCGTA, the binding signal (log2 normalized fluorescence) amounted to 0.43. For TGACCGGAGGTA the value was -0.0398.

Consider TGACATGTGGCA, for which the binding signal (log2 normalized fluorescence) came to 0.595. The same measure for TGAAGACCCGTA: 0.182.

Consider TGATATAACGTA, for which the binding signal (log2 normalized fluorescence) was 0.0713. In the case of TGAGAATGTGTA, the binding signal (log2 normalized fluorescence) came to 0.241. For TGAGCCTGAGTA the value was -0.067; for TGATTTTGAGTA, -0.16. The same measure for TGAAATGACGTA: 0.175; for TGACACAACGTA: 0.345; for TGAGAAGTAGTA: -0.0932. Turning to TGATTAATCGTA, the binding signal (log2 normalized fluorescence) came to 0.00748.

Take GCGGTTGGATAG: the binding signal (log2 normalized fluorescence) was 0.223. For TGAGGGGAAGTA the value was 0.331. Regarding TGAGTTTATGTA, the binding signal (log2 normalized fluorescence) was 0.0235. For TGAATGTATGTA the value was 0.204; for CGACCCGTGGTA, 0.391.

With TGACACGCTTTA, the binding signal (log2 normalized fluorescence) is 0.541.

For TGATTCCTCGTA, the binding signal (log2 normalized fluorescence) was determined as 0.216. With TGATTCATGGTA, the binding signal (log2 normalized fluorescence) came out at 0.183.

For TGAAATTTGGTA, the binding signal (log2 normalized fluorescence) was -0.229. As for TGATTGATAGTA, the binding signal (log2 normalized fluorescence) is -0.193. On to TGATATAAGGTA, for which the binding signal (log2 normalized fluorescence) was -0.0417.

For the sequence TGAACGCAAGTA, the binding signal (log2 normalized fluorescence) is 0.302.

Turning to TGAAGGAAAGTA, the binding signal (log2 normalized fluorescence) was 0.116. With TGATAAGTGGGA, the binding signal (log2 normalized fluorescence) was -0.133. The same measure for TGACTCTGGGTA: -0.215; for TGAACAGAAGTA: 0.21; for TGAGGTGCTGTA: 0.228. For GAACACGTAGTA the value was 0.322; for TGACCCTACGTA, 0.137. For TGACAACGGGTA the value was 0.226; for TGATCGATTGTA, 0.0332. In the case of TGAATGTTTGTA, the binding signal (log2 normalized fluorescence) was determined as 0.282. The same measure for TGAGGCGAGGTA: 0.237. The same measure for TGACACCTCTTA: 0.403; for TGAGGACAAGTA: 0.00983; for TGACCATGCGTA: 0.657.

Consider TGAAGTGTCGTA, for which the binding signal (log2 normalized fluorescence) came out at 0.0163. In the case of TGATTATAGGTA, the binding signal (log2 normalized fluorescence) is -0.12.

Regarding TGATCTGAGGTA, the binding signal (log2 normalized fluorescence) was -0.0711. For TGACCCGCCGTA the value was 0.264; for TGAACACTGGTA, 0.267; for TGACTCGCTGTA, 0.236.

For TGATGGAACGTA, the binding signal (log2 normalized fluorescence) turned out to be 0.186. For TGACTTCTCGTA the value was 0.0406; for TGAATACGCGTA, 0.156. The same measure for TGAGCTAAGGTA: -0.158; for GGACACGAGGTA: 0.562. The same measure for TGAGACTTCGTA: -0.101. Regarding TGACACGTCTTA, the binding signal (log2 normalized fluorescence) is 0.308. For TGACACGCGCTA the value was 0.811; for TGACTACATGTA, 0.419; for TGACTTGAGGTA, 0.196. For TGATCTGTCGTA the value was 0.065; for TGGCACAGGGTA, 0.186. With TGACAATTTGTA, the binding signal (log2 normalized fluorescence) was found to be 0.00323. The same measure for TGACGGCCGGTA: -0.136; for TGAATTTTTGTA: -0.151.

With TGATACAATGTA, the binding signal (log2 normalized fluorescence) was 0.174. The same measure for GTGCACGTGGTA: 0.856; for TGATGTTCAGTA: 0.192; for TGAGGGCCTGTA: 0.145. Consider TGACCGACCGTA, for which the binding signal (log2 normalized fluorescence) was determined as 0.192. As to TGATCTAGTGTA, the binding signal (log2 normalized fluorescence) is -0.0943.

As to TGAGGCCAAGTA, the binding signal (log2 normalized fluorescence) is -0.135. TGAAAAAGGGTA: the binding signal (log2 normalized fluorescence) was -0.0246. For TGACAAGTGGCA the value was 0.332; for TGACTTCGTGTA, 0.39; for TGAGATGAGGTA, 0.0191. The same measure for TTGCACGTGGTA: 1.01; for TGAGTCACGGTA: 0.169; for TGCTACGTGGTA: 0.375.

Turning to TGAAACTTCGTA, the binding signal (log2 normalized fluorescence) was determined as 0.0456.

Regarding TGAAAGCATGTA, the binding signal (log2 normalized fluorescence) turned out to be 0.491. TGACAGACCGTA: the binding signal (log2 normalized fluorescence) came out at 0.273. For TGATCTCCAGTA the value was 0.0575; for TGATAAGTCGTA, -0.0999.

AATCACGTGGTA: the binding signal (log2 normalized fluorescence) is 0.75.

As for TGATTGGCGGTA, the binding signal (log2 normalized fluorescence) is -0.0843.

In the case of TGAAATAGTGTA, the binding signal (log2 normalized fluorescence) came to 0.0457. For TGATCTTCGGTA the value was -0.267. TGACTGGAAGTA: the binding signal (log2 normalized fluorescence) was 0.0371. For the sequence TAACAGGTGATA, the binding signal (log2 normalized fluorescence) was 0.412. The same measure for TGACACGTGCGT: 0.597; for TGACTCTACGTA: 0.179; for TGAAACAATGTA: 0.152. The same measure for TGATCTTTGGTA: -0.146. Consider TGATAATTTGTA, for which the binding signal (log2 normalized fluorescence) is -0.19. For TGACGAATAGTA the value was -0.0399.

TGTGGCGTGGTA: the binding signal (log2 normalized fluorescence) is 0.452. The same measure for TAACACGCGGTA: 0.819.

With TGACGGACTGTA, the binding signal (log2 normalized fluorescence) was found to be 0.0984. For TGATTAAGGGTA the value was -0.0226; for TGAAACGTGGAC, 0.506. The same measure for TGACAGAGGGTA: 0.0838; for TGAAACCTCGTA: 0.163. For TGAATTTGTGTA the value was -0.0827; for TGAATGTCCGTA, 0.208. Turning to TGACCACCAGTA, the binding signal (log2 normalized fluorescence) was found to be 0.337. For TGACAGTGTGTA the value was 0.358. As for TGATACCCCGTA, the binding signal (log2 normalized fluorescence) was -0.0644.

For TGAAATGTAGTA, the binding signal (log2 normalized fluorescence) came out at 0.0682. The same measure for TGAGTATGTGTA: 0.0231; for TGAAAAAGTGTA: 0.0869. For TGATTTAGAGTA the value was -0.177; for TGAGAGTCCGTA, -0.0888; for TGAATGTGGGTA, 0.285. With TGAGGCCATGTA, the binding signal (log2 normalized fluorescence) amounted to 0.202. The same measure for TGATATGCTGTA: -0.0984; for TCACACGCGGTT: 0.822.

Consider TGATGCGTAGTA, for which the binding signal (log2 normalized fluorescence) was 0.158. For TGACCGATAGTA the value was -0.0965; for TGATGATTTGTA, -0.0486; for TTGCACGTGGTT, 0.716. The same measure for TGAGGTTCCGTA: -0.136; for TGACATCAGGTA: 0.0135; for TGAGGAGCCGTA: -0.035.

In the case of CAAATACAGAGC, the binding signal (log2 normalized fluorescence) is -0.0563. For TGAGTATCAGTA the value was -0.177; for TGAGAACCCGTA, 0.133. For TGAGTATATGTA the value was -0.133. For TGACTATCCGTA the value was -0.00348; for TGAGTGTCTGTA, 0.217; for TGAAGATTGGTA, -0.185.

ACACACCTGGTA: the binding signal (log2 normalized fluorescence) came out at 0.535. For TGACACTCAGTA the value was 0.215; for TGATCTACTGTA, 0.103; for TGATATTCGGTA, -0.126. For TGAGCATTAGTA the value was 0.01; for TGAGCAGAGGTA, 0.0598. For TGAAACTGCGTA the value was 0.16; for TGATAACCTGTA, 0.136. Consider TGAGAAGAAGTA, for which the binding signal (log2 normalized fluorescence) was -0.209. For TGAAATTATGTA the value was -0.0628; for TGACAAGGGGTA, 0.364. For TGACAAGCGGGA, the binding signal (log2 normalized fluorescence) stood at 0.16. Regarding AAGTAGCGCACA, the binding signal (log2 normalized fluorescence) stood at 0.538.

In the case of TGAAGCCTTGTA, the binding signal (log2 normalized fluorescence) was -0.0498.

Turning to TGAGAGCAAGTA, the binding signal (log2 normalized fluorescence) worked out at 0.116. In the case of TGATTCGAAGTA, the binding signal (log2 normalized fluorescence) is -0.235.
